This is one part of the list. Sequences were assembled here from the parent chain. Values near 0.05 are background.
B1: TEV protease; numbered along this chain (parent)
chain: MGESLFKGPRDYNPISSSICHLTNESDGHTTSLYGIGFGPFIITNKHLFRRNNGTLVVQSLHGVFKVKDTTTLQQHLVDGRDMIIIRMPKDFPPFPQKLKFREPQREERICLVTTNFQTKSMSSMVSDTSCTFPSGDGIFWKHWIQTKDGQCGSPLVSTRDGFIVGIHSASNFTNTNNYFTSVPKNFMELLTNQEAQQWVSGWRLNADSVLWGGHKVFMVKPEEPFQPVKEATQL

Variants of: B1
Assay: raw area under fraction-flipped curve 0-4 h after induction (AUC4h, not background-subtracted), DNA-recorder readout of cleavage of the substrate (dimensionless); higher = more cleavage of the substrate by the protease variant
Conditions: temperature: 34 °C; time window: 0-4 h after rhamnose induction
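Note: Bxb1 expression induced with 0.2% (w/v) L-rhamnose at OD600 near 0.5, cultures sampled hourly, flipped fraction per protease–substrate barcode pair counted by paired-end Illumina sequencing.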

Variant | area with substrate ENLYDQS | area with substrate ENLYIQS | area with substrate ENLYSQS | area with substrate ENLYEQS | area with substrate ENLYHQS | area with substrate ENLYMQS | area with substrate ENLYNQS | area with substrate ENLYPQS | area with substrate ENLYQQS | area with substrate ENLYRQS
MGESLFKGPRDYNPISSSICHLTNESDGHTTSLYGIGFGPFIITNKHLFRRNNGTLVVQSLHGVFKVKDTTTLQQHLVDGRDMIIIRMPKDFPPFPQKLKFREPQREERICLVTTNFQTKSMSSMVSDTSCTFPSGDGIFWKHWIQTKDGQCGSPLVSTRDGFIVGIHSASNFTNTNNYFTSVPKNFMELLTNQEAQQWVSGDRLNADSVLWGGHKVFMVKPEEPFQPVKEATQL [W203D] | 0.0586 | 0.0626 | 0.064 |  |  |  |  |  |  | 
MGESLFKGPRDYNPISSSICHLTNESDGHTTSLYGIGFGPFIITNKHLFRRNNGTLVVQSLHGVFKVKDTTTLQQHLVDGRDMIIIRMPKDFPPFPQKLKFREPQREERICLVTTNFQTKSMSSMVSDTSCTFPSGDGIFWKHWIQTKDGQCGSPLVSTRDGFIVGIHSASNFTNTNNYFTSVPKNFMELLTNQEAQQWVSGWRLNADAVLWGGHKVFMVKPEEPFQPVKEATQL [S209A] | 0.0625 |  |  | 0.0723 | 0.0831 | 0.0682 | 0.084 | 0.0684 | 0.0744 | 0.059
MGESLFKGPRDYNPISSSICHLTNESDGHTTSLYGIGFGPFIITNKHLFRRNNGTLVVQSLHGVFKVKDTTTLQQHLVDGRDMIIIRMPKDFPPFPQKLKFREPQREERICLVTTNFQTKSMSSMVSDTSCTFPSGDGIFWKHWIQTKDGQCGSPLVSTRDGFIVGIHSASNFTNTNNYFTSVPKNFMELLTNQEAQQWVSGWRLNADWVLWGGHKVFMVKPEEPFQPVKEATQL [S209W] | 0.0648 |  |  | 0.0597 |  | 0.0819 | 0.0762 | 0.0939 |  | 
MGESLFKGPRDYNPISSSICHLTNESDGHTTSLYGIGFGPFIITNKHLFRRNNGTLVVQSLHGVFKVKDTTTLQQHLVDGRDMIIIRMPKDFPPFPQKLKFREPQREERICLVTTNFQTKSMSSMVSDTSCTFPSGDGIFWKHWIQTKDGQCGSPLVSTRDGFIVGIHSASNFTNTNNYFTSVPKNFMELLTNQEAQQWVSGWRLNADEVLWGGHKVFMVKPEEPFQPVKEATQL [S209E] | 0.0651 |  |  | 0.0858 |  | 0.0982 |  |  |  | 0.0576
MGESLFKGPRDYNPISSSICHLTNESDGHTTSLYGIGFGPFIITNKHLFRRNNGTLVVQSLHGVFKVKDTTTLQQHLVDGRDMIIIRMPKDFPPFPQKLKFREPQREERICLVTTNFQTKSMSSMVSDTSCTFPSGDGIFWKHWIQTKDGQCGSPLVSTRDGFIVGIHSASNFTNTNNYFTSVPKNFMELLTNQEAQQWVSGWRLNADSPLWGGHKVFMVKPEEPFQPVKEATQL [V210P] | 0.0591 | 0.0832 | 0.0659 | 0.053 | 0.0543 | 0.0544 |  | 0.073 | 0.0046 | 0.0576
MGESLFKGPRDYNPISSSICHLTNESDGHTTSLYGIGFGPFIITNKHLFRRNNGTLVVQSLHGVFKVKDTTTLQQHLVDGRDMIIIRMPKDFPPFPQKLKFREPQREERICLVTTNFQTKSMSSMVSDTSCTFPSGDGIFWKHWIQTKDGQCGSPLVSTRDGFIVGIHSASNFTNTNNYFTSVPKNFMELLTNQEAQQWVSGWRLNRDSVLWGGHKVFMVKPEEPFQPVKEATQL [A207R] | 0.0432 |  |  | 0.0672 |  | 0.0844 | 0.0621 |  | 0.0665 | 0.0685
MGESLFKGPRDYNPISSSICHLTNESDGHTTSLYGIGFGPFIITNKHLFRRNNGTLVVQSLHGVFKVKDTTTLQQHLVDGRDMIIIRMPKDFPPFPQKLKFREPQREERICLVTTNFQTKSMSSMVSDTSCTFPSGDGIFWKHWIQTKDGQCGSPLVSTRDGFIVGIHSASNFTNTNNYFTSVPKNFMELLTNQEAQQWVSGWRLNADSVLWGEHKVFMVKPEEPFQPVKEATQL [G214E] | 0.0501 |  |  | 0.079 | 0.0675 |  |  | 0.0683 |  | 
MGESLFKGPRDYNPISSSICHLTNESDGHTTSLYGIGFGPFIITNKHLFRRNNGTLVVQSLHGVFKVKDTTTLQQHLVDGRDMIIIRMPKDFPPFPQKLKFREPQREERICLVTTNFQTKSMSSMVSDTSCTFPSGDGIFWKHWIQTKDGQCGSPLVSTRDGFIVGIHSASNFTNTNNYFTSVPKNFMELLTNQEAQQWDSGWRLNADSVLWGGHKVFMVKPEEPFQPVKEATQL [V200D] | 0.0391 |  |  | 0.0792 | 0.0589 | 0.0824 |  |  |  | 0.062
MGESLFKGPRDYNPISSSICHLTNESDGHTTSLYGIGFGPFIITNKHLFRRNNGTLVVQSLHGVFKVKDTTTLQQHLVDGRDMIIIRMPKDFPPFPQKLKFREPQREERICLVTTNFQTKSMSSMVSDTSCTFPSGDGIFWKHWIQTKDGQCGSPLVSTRDGFIVGIHSASNFTNTNNYFTSVPKNFMELLTNQEAQQWVSGWRLNADSVLWGGHKVFMVKTEEPFQPVKEATQL [P222T] | 0.0555 | 0.0937 | 0.0676 | 0.0704 |  | 0.0853 |  | 0.0604 | 0.0507 | 0.0585
MGESLFKGPRDYNPISSSICHLTNESDGHTTSLYGIGFGPFIITNKHLFRRNNGTLVVQSLHGVFKVKDTTTLQQHLVDGRDMIIIRMPKDFPPFPQKLKFREPQREERICLVTTNFQTKSMSSMVSDTSCTFPSGDGIFWKHWIQTKDGQCGSPLVSTRDGFIVGIHSASNFTNTNNYFTSVPKNFMELLTNQEAQQWVSGWRLNADSVLWGGLKVFMVKPEEPFQPVKEATQL [H215L] | 0.0741 | 0.0668 | 0.0705 | 0.0592 |  | 0.0346 |  | 0.0579 | 0.0766 | 

Same assay, conditions: temperature: 34 °C; time window: 0-4 h after rhamnose induction

Variant | area with substrate ENLYGQS | area with substrate ENLYKQS | area with substrate ENLYVQS | area with substrate ENLYWQS | area with substrate ENLYYQS | area with substrate ENLYLQS | area with substrate ENLYTQS
MGESLFKGPRDYNPISSSICHLTNESDGHTTSLYGIGFGPFIITNKHLFRRNNGTLVVQSLHGVFKVKDTTTLQQHLVDGRDMIIIRMPKDFPPFPQKLKFREPQREERICLVTTNFQTKSMSSMVSDTSCTFPSGDGIFWKHWIQTKDGQCGSPLVSTRDGFIVGIHSASNFTNTNNYFTSVPKNFMELLTNQEAQQWVSGWRLNADEVLWGGHKVFMVKPEEPFQPVKEATQL [S209E] | 0.0633 | 0.11 | 0.141 | 0.0888 | 0.0589 |  | 
MGESLFKGPRDYNPISSSICHLTNESDGHTTSLYGIGFGPFIITNKHLFRRNNGTLVVQSLHGVFKVKDTTTLQQHLVDGRDMIIIRMPKDFPPFPQKLKFREPQREERICLVTTNFQTKSMSSMVSDTSCTFPSGDGIFWKHWIQTKDGQCGSPLVSTRDGFIVGIHSASNFTNTNNYFTSVPKNFMELLTNQEAQQWVSGWRLNADSPLWGGHKVFMVKPEEPFQPVKEATQL [V210P] | 0.0599 | 0.0673 |  |  |  | 0.0598 | 0.0784
MGESLFKGPRDYNPISSSICHLTNESDGHTTSLYGIGFGPFIITNKHLFRRNNGTLVVQSLHGVFKVKDTTTLQQHLVDGRDMIIIRMPKDFPPFPQKLKFREPQREERICLVTTNFQTKSMSSMVSDTSCTFPSGDGIFWKHWIQTKDGQCGSPLVSTRDGFIVGIHSASNFTNTNNYFTSVPKNFMELLTNQEAQQWVSGWRLNRDSVLWGGHKVFMVKPEEPFQPVKEATQL [A207R] | 0.0559 |  |  | 0.0986 | 0.0616 |  | 0.069
MGESLFKGPRDYNPISSSICHLTNESDGHTTSLYGIGFGPFIITNKHLFRRNNGTLVVQSLHGVFKVKDTTTLQQHLVDGRDMIIIRMPKDFPPFPQKLKFREPQREERICLVTTNFQTKSMSSMVSDTSCTFPSGDGIFWKHWIQTKDGQCGSPLVSTRDGFIVGIHSASNFTNTNNYFTSVPKNFMELLTNQEAQQWDSGWRLNADSVLWGGHKVFMVKPEEPFQPVKEATQL [V200D] |  |  |  | 0.056 | 0.0635 |  | 0.0763
MGESLFKGPRDYNPISSSICHLTNESDGHTTSLYGIGFGPFIITNKHLFRRNNGTLVVQSLHGVFKVKDTTTLQQHLVDGRDMIIIRMPKDFPPFPQKLKFREPQREERICLVTTNFQTKSMSSMVSDTSCTFPSGDGIFWKHWIQTKDGQCGSPLVSTRDGFIVGIHSASNFTNTNNYFTSVPKNFMELLTNQEAQQWVSGWRLNADSVLWGGHKVFMVKTEEPFQPVKEATQL [P222T] | 0.074 | 0.056 | 0.129 |  |  |  | 
MGESLFKGPRDYNPISSSICHLTNESDGHTTSLYGIGFGPFIITNKHLFRRNNGTLVVQSLHGVFKVKDTTTLQQHLVDGRDMIIIRMPKDFPPFPQKLKFREPQREERICLVTTNFQTKSMSSMVSDTSCTFPSGDGIFWKHWIQTKDGQCGSPLVSTRDGFIVGIHSASNFTNTNNYFTSVPKNFMELLTNQEAQQWVSGWRLNADSVLWGGLKVFMVKPEEPFQPVKEATQL [H215L] | 0.0627 | 0.0038 | 0.0777 | 0.0449 | 0.0531 |  | 0.07

— the supplement of paper PMC12217912
